Experimental data from PubChem BioAssay AID588453 (National Center for Advancing Translational Sciences (NCATS), 2011).
In all, about 390,000 compounds went through this assay and about 4,000 (1%) were called active. This list was built around the results that the source calls inconclusive (neither active nor inactive); the mix of calls is not that of the screen. Calls come from the whole dose curve; as a rule, active = well fitted inhibition curve with a large enough effect; inconclusive = small, poorly fitted or top-dose-only effect; inactive = no such curve, though single readings can be large or run the other way. Potencies beside an inconclusive call are fits to weak or partial responses and may not hold up. The source holds several records for some structures; these can differ, active in one and inactive in another.

Target: Thioredoxin reductase 1, cytoplasmic (Rattus norvegicus) (UniProt O89049)
Sequence of UniProt O89049 (O89049 whole entry, looked up): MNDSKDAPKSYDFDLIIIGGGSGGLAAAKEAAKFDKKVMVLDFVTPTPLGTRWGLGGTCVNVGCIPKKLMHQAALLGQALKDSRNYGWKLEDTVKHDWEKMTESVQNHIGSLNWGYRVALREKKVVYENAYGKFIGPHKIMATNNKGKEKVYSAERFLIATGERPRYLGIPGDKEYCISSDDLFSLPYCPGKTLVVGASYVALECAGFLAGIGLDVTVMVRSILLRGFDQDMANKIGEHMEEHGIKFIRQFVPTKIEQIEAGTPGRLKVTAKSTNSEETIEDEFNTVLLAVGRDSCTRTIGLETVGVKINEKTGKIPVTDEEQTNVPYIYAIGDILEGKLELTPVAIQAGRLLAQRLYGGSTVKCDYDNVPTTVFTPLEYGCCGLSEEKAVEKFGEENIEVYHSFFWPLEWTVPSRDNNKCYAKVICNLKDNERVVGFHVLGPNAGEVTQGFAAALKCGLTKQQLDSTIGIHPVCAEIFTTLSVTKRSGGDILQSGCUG
Test: qHTS Assay for Inhibitors of Mammalian Selenoprotein Thioredoxin Reductase 1 (TrxR1): qHTS; note: nearly all actives have a fitted effect of over 65% in size
Conditions: recombinant rTrxR1, NADPH fluorescence consumption, selenite substrate; series mostly up to 114 µM; activity change, negative = inhibition: at the top concentration
How it was run: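 Rat TrxR1 (90 nM in the dispensed reagent) was pre-reduced with 400 uM NADPH for 5 min at room temperature, then incubated with compound for 15 min. After 400 uM selenite was added, NADPH fluorescence (Ex 340/Em 450 nm) was followed for 8 min.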
% is set by controls: 0 for no effect and ±100 for the full control effect; potency is the fitted concentration of half-maximal effect; tags give direction and shape of the fitted curve.

| SMILES | activity change, negative = inhibition | Potency |
| --- | --- | --- |
| CN(C)C(CNC(=O)c1cccc(S(=O)(=O)NCc2ccccc2)c1)c1ccccc1 (stereo unspecified) | inactive: 4.53% [at 57.1 µM] | – |
| COCCCNC(=S)NNC(=O)c1ccccc1Br | inactive: 29.3% [at 57.1 µM] | – |
| CCCCN(CC(=O)Nc1cccc(S(=O)(=O)N2CCCC2)c1)Cc1nc2ccccc2c(=O)[nH]1 | – | inconclusive: 50.1 µM [inhibitor, partial curve, poor fit] |
| O=C(Oc1ccc(=O)n(-c2ccccc2)n1)c1ccc(F)cc1 | – | inconclusive: 10 µM [inhibitor, partial curve, poor fit] |
| CCc1ccc(NC(=O)Cn2c(=O)n(-c3cc(C)cc(C)c3)c(=O)c3oc4ccccc4c32)cc1 | inactive: 24% | – |
| O=C1CCN(Cc2ccccc2)S(=O)(=O)c2ccc(F)cc21 | – | inconclusive: 70.8 µM [inhibitor, partial curve] |
| Cc1ccc(C(C[N+](=O)[O-])Sc2ccc(N)cc2)cc1 (stereo unspecified) | – | inconclusive: 11.2 µM [inhibitor, partial curve] |
| C=C1CN(Cc2ccccc2)S(=O)(=O)c2ccccc21 | – | active: 28.2 µM |
| C/C(=N\S(=O)(=O)c1ccc(C)cc1)NC(=S)Nc1ccc(C)cc1 | – | inconclusive: 35.5 µM [inhibitor, partial curve] |
| CN(C(=O)NC(=O)C1=C(N2CCOCC2)/C(=C/c2ccccc2)CC1)S(C)(=O)=O | – | active: 35.5 µM |
| COc1ccc(NCc2ccc([N+](=O)[O-])s2)c(OC)c1 | – | inconclusive: 50.1 µM [inhibitor, partial curve] |
| O=C1CSC(c2ccncc2)N1Cc1ccco1 (stereo unspecified) | – | inconclusive: 20 µM [inhibitor, full curve] |
| CC(C)C[C@@H](CN1CCCC1CN1C(=S)NC[C@@H]1Cc1ccc(O)cc1)N1C[C@H](Cc2ccc(O)cc2)N(CC2CCCCCC2)C1=S (stereo partly specified) | inactive: 5.53% | – |
| O=C(c1ccc(S(=O)(=O)c2cccc(Cl)c2)c([N+](=O)[O-])c1)N1CCN(c2ccccn2)CC1 | – | inconclusive: 15.8 µM [inhibitor, partial curve] |
| CC(=O)Nc1ccc(NC(=O)CSc2ccc(-c3ccco3)nn2)cc1 | – | inconclusive: 22.4 µM [inhibitor, single point] |
| Cc1cccc(-n2c(=O)cc(N3CCN(c4ccc(F)cc4)CC3)[nH]c2=O)c1 | – | inconclusive: 79.4 µM [inhibitor, partial curve] |
| CCCn1c(CC)nc([N+](=O)[O-])c1S(=O)(=O)c1ccccc1 | – | active: 0.316 µM |
| Cc1ccc(Cn2c(C(CO)Nc3nc(-c4ccc(F)cc4)cs3)nc3ccccc32)cc1 (stereo unspecified) | inactive: 3.75% | – |
| CCn1c(SCC(=O)c2cc(OC)ccc2OC)nnc1C(C)C | – | inconclusive: 12.6 µM [inhibitor, partial curve, poor fit] |
| C=CCOc1ccc(C2/C(=C(/O)c3ccc(OC)cc3)C(=O)C(=O)N2CCN2CCNCC2)cc1 (stereo unspecified) | – | inconclusive: 50.1 µM [inhibitor, partial curve, poor fit] |
| C[n+]1ccccc1/C=C/c1ccc([N+](=O)[O-])cc1 | – | inconclusive: 56.2 µM [inhibitor, partial curve, poor fit] |
| CCCOc1ccc(C2C(C(=O)c3ccc(C)o3)=C(O)C(=O)N2Cc2ccco2)cc1 (stereo unspecified) | – | inconclusive: 22.4 µM [inhibitor, partial curve, poor fit] |

| SMILES | activity change, negative = inhibition | Potency |
| --- | --- | --- |
| Cc1ccc(C)c(S(=O)(=O)Nc2cc(SCC(=O)O)c(O)c3ccccc23)c1 | – | inconclusive: 20 µM [inhibitor, full curve] |
| CC(/C=C/c1ccc(N(C)C)cc1)=N\N=C1\NC(=O)CC(C(=O)Nc2ccccc2)S1 (stereo unspecified) | – | inconclusive: 50.1 µM [inhibitor, partial curve, poor fit] |
| Clc1ccc(/C=N/c2c(-c3ccco3)nc3ccccn23)cc1 | – | inconclusive: 44.7 µM [inhibitor, partial curve] |
| O=C(CSc1nnc(-c2cccc(F)c2)c(-c2cccc(F)c2)n1)NC1CCCCC1 | inactive: 8.4% [at 57.1 µM] | – |
| COc1ccc(C2C(C(C)=O)=C(O)C(=O)N2c2nccs2)cc1OC (stereo unspecified) | – | inconclusive: 44.7 µM [inhibitor, partial curve, poor fit] |
| COc1cccc(CSc2nc(-c3ccccc3F)nc3c2Cc2c(CO)cnc(C)c2O3)c1 | – | inconclusive: 11.2 µM [inhibitor, single point] |
| CCOC(=O)C1CCCN(C(=O)c2cc(-c3ccco3)nc3ccccc23)C1 (stereo unspecified) | – | inconclusive: 2.24 µM [inhibitor, full curve, poor fit] |
| COc1ccc(C(=O)NC(=S)NCc2cccnc2)cc1Br | inactive: -5.36% | – |
| CSc1nsc(/C=C/Nc2cccc(Cl)c2)c1C#N | – | inconclusive: 70.8 µM [inhibitor, single point] |
| COc1ccc(NS(=O)(=O)c2cccc(C(=O)N/N=C(\C)c3ccc(-n4ccnc4)cc3)c2)cc1 | inactive: 9.54% [at 57.1 µM] | – |
| Cc1cc(C)nc(SCNC(=O)c2ccc(F)cc2)n1 | – | inconclusive: 11.2 µM [inhibitor, full curve, poor fit] |
| CC1(C)CC(=O)C(C=NCCN2CCN(C(=O)c3ccc(F)cc3)CC2)=C(O)C1 | – | inconclusive: 22.4 µM [inhibitor, partial curve] |
| CCCS(=O)(=O)c1c(S(=O)(=O)CCC)c2c(N)cccn2c1C(=O)c1ccc(F)cc1 | inactive: -17.6% | – |
| C=CCNC(=S)NS(=O)(=O)c1cccs1 | inactive: -9% [at 57.1 µM] | – |
| N#Cc1ccc(-c2ccc(C3Nc4ccccc4C(=O)N3O)o2)cc1 (stereo unspecified) | – | active: 7.08 µM |
| CCOc1ccccc1NC(=O)CN1C(=O)COc2ccc(S(=O)(=O)NC3CCCC3)cc21 | inactive: 11.1% | – |
| O=C1CCCN1CCC1CCN(C2CC(=O)N(c3ccc(F)cc3)C2=O)CC1 (stereo unspecified) | – | inconclusive: 39.8 µM [inhibitor, single point] |
| Cc1ccc(S(=O)(=O)c2cc(Nc3ccccc3)ccc2O)cc1 | – | inconclusive: 50.1 µM [inhibitor, partial curve, poor fit] |
| Cc1ccc(S(=O)(=O)CC(=O)c2ccc([N+](=O)[O-])cc2)cc1 | – | inconclusive: 8.91 µM [inhibitor, full curve] |
| CN(C(=S)NC(=O)C12CC3CC(CC(C3)C1)C2)c1ccc(O)cc1 | – | inconclusive: 17.8 µM [inhibitor, full curve] |
| Cc1cc2c(cc1Cl)N(C(=O)Nc1ccc(Oc3cccnc3C)nc1)CC2 | – | inconclusive: 39.8 µM [inhibitor, single point] |
| CCOC(=O)C1CCN(C(=O)COc2ccc(S(=O)(=O)N3CCOCC3)cc2)CC1 | – | inconclusive: 79.4 µM [inhibitor, single point] |

| SMILES | activity change, negative = inhibition | Potency |
| --- | --- | --- |
| CC(C)CN1C(=O)/C(=C(/C#N)C(=O)NC2CCCCC2)c2ccccc21 | inactive: -5.74% | – |
| COc1ccc(CCNC(=O)CSc2nnc3ccc(-c4cccnc4)nn23)cc1OC | – | inconclusive: 100 µM [inhibitor, single point] |
| Cc1ccc(Sc2c([N+](=O)[O-])ncn2C)cc1 | – | inconclusive: 25.1 µM [inhibitor, single point] |
| Cc1ccsc1-c1nc(CN2CCCC2c2ccc(F)cc2)c(C)o1 (stereo unspecified) | inactive: -0.025% | – |
| COc1ccc(/C(O)=C2/C(=O)C(=O)N(CCCN(C)C)C2c2ccc(Cl)cc2)cc1OC (stereo unspecified) | – | inconclusive: 50.1 µM [inhibitor, partial curve] |
| Cc1ccc(C2=NN(C(=O)CSc3nnnn3C)C(c3ccco3)C2)cc1 (stereo unspecified) | – | inconclusive: 56.2 µM [inhibitor, partial curve, poor fit] |
| Cc1scc2c1N(C(=O)CN1CCN(C)CC1)c1ccccc1NC2=O | – | inconclusive: 0.067 µM [inhibitor, full curve, poor fit] |
| O=C1CC(SC2=NCCS2)C(=O)N1c1ccc(Br)cc1 (stereo unspecified) | – | inconclusive: 70.8 µM [inhibitor, partial curve, poor fit] |
| Cc1onc(-c2ccccc2Cl)c1C(=O)Nc1ccc(-n2nncc2-c2ccco2)cc1 | – | inconclusive: 70.8 µM [inhibitor, single point] |
| CCOC(=O)c1cnc2[nH]c3ccccc3n2c1=O | – | active: 44.7 µM |
| CC(C)CC(=O)Nc1cccc(-c2nc3ccccc3[nH]2)c1 | – | inconclusive: 79.4 µM [inhibitor, partial curve, poor fit] |
| CCNC(=S)N/N=C/c1cccc(/C=N/NC(=S)NCC)c1 | inactive: 24.3% | – |
| CC(NC(=O)CCl)c1ccc(Cl)c(Cl)c1 (stereo unspecified) | – | active: 39.8 µM |
| O=c1c([N+](=O)[O-])c(N2CCCC2)c2ccccc2n1-c1ccccc1 | inactive: -5.64% | – |
| CC(=O)Oc1ccc(C(=O)[C@H]2[C@H]3C(=O)N(c4ccc(C)cc4)C(=O)[C@H]3[C@@H]3C=CC=NN32)cc1 | – | inconclusive: 44.7 µM [inhibitor, partial curve] |
| COc1ccc(NC(=O)C(=O)NCCc2csc(-c3ccc(Cl)cc3)n2)cc1OC | inactive: -4.02% [at 57.1 µM] | – |
| Cc1ccc(-c2cc(-c3ccc(F)cc3)nc(N)c2C#N)o1 | – | inconclusive: 35.5 µM [inhibitor, single point] |
| CCOC(=O)c1ccc[n+](CC(=O)Nc2cc(C(F)(F)F)ccc2Cl)c1 | – | inconclusive: 70.8 µM [inhibitor, single point] |
| Cc1nnnn1/C(=C\c1ccccc1)C(=O)OCC(=O)Nc1ccc(Cl)cc1F | – | inconclusive: 28.2 µM [inhibitor, full curve] |
| Oc1ccc(-c2onc3ccc(Cl)cc23)cc1 | – | inconclusive: 50.1 µM [inhibitor, partial curve] |
| Nc1nonc1-n1nnc(C(=O)N/N=C/c2ccccn2)c1-c1ccccc1 | – | inconclusive: 89.1 µM [inhibitor, partial curve, poor fit] |
| COCCn1nnnc1SCC(=O)c1ccccc1 | – | inconclusive: 0.891 µM [inhibitor, full curve, poor fit] |
